Results are given in words; binding and its absence hold for the method and conditions named. For some assays here: Binding seen in cells or lysates may run through a third protein. Some results given as binding are weak or reduced against the parent protein; the word gives no strength. For some assays here: Tags and fused reporters may be left off the sequences shown.
Columns and labels:
[1] = target: HPV-16 L1 GST fusion protein (Human papillomavirus type 16 (HPV-16)) (UniProt P03101); assay: pull-down; purified GST fusion proteins incubated with clarified RIPA extracts of transfected HEK293 cells, 2 h at room temperature; extensive washing; western blotting; only the target purified
[2] = target: HPV-16 L2 GST fusion protein (Human papillomavirus type 16 (HPV-16)) (UniProt P03107); assay: as above
[3] = target: T1, endogenous VPS4B (human (endogenous in HaCaT)) (UniProt O75351); assay: co-IP; HaCaT cells infected with HPV-16 PsVs (1 h at 4 °C, then 37 °C), harvested in RIPA 3 h and 6 h post-infection; anti-VPS4B overnight at 4 °C, protein A sepharose; blots for L1 and L2
T1 sequence: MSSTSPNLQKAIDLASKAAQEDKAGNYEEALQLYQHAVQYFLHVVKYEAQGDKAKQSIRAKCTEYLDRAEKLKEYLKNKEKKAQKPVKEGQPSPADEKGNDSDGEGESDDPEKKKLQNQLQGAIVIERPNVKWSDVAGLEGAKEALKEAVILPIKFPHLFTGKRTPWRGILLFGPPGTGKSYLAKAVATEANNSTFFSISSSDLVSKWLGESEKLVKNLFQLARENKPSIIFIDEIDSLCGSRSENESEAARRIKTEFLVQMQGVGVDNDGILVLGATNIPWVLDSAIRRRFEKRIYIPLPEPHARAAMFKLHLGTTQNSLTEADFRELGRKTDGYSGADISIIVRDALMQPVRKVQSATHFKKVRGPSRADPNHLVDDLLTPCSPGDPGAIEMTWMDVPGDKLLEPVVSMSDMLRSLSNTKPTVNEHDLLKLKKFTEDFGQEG

Sequences of proteins named here, by UniProt entry; tags and fusion partners are left off.
UniProt P03101: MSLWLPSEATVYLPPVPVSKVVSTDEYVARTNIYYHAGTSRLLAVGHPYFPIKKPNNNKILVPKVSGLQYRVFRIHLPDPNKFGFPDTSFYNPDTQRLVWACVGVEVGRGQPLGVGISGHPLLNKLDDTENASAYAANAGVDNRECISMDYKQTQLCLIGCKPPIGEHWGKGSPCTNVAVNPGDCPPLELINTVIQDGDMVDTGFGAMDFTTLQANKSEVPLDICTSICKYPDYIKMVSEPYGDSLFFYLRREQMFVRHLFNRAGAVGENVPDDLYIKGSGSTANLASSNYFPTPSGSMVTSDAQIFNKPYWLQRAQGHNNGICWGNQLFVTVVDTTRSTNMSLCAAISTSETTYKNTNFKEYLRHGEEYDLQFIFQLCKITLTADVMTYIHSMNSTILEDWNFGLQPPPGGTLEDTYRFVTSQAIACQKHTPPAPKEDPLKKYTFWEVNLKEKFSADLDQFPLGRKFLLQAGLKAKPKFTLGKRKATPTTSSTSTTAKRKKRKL
UniProt P03107: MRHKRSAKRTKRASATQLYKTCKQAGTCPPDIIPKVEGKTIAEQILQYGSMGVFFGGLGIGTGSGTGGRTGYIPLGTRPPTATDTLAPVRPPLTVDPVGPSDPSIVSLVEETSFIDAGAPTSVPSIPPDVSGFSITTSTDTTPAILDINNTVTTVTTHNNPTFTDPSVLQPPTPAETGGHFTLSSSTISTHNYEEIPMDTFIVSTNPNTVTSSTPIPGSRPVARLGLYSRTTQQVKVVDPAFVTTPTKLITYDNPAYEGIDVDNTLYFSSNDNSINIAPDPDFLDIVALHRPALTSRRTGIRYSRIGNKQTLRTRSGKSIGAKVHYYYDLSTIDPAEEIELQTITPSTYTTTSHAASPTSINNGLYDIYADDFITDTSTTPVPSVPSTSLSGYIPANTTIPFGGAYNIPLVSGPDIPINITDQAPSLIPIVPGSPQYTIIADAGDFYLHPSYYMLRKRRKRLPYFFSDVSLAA
UniProt O14964: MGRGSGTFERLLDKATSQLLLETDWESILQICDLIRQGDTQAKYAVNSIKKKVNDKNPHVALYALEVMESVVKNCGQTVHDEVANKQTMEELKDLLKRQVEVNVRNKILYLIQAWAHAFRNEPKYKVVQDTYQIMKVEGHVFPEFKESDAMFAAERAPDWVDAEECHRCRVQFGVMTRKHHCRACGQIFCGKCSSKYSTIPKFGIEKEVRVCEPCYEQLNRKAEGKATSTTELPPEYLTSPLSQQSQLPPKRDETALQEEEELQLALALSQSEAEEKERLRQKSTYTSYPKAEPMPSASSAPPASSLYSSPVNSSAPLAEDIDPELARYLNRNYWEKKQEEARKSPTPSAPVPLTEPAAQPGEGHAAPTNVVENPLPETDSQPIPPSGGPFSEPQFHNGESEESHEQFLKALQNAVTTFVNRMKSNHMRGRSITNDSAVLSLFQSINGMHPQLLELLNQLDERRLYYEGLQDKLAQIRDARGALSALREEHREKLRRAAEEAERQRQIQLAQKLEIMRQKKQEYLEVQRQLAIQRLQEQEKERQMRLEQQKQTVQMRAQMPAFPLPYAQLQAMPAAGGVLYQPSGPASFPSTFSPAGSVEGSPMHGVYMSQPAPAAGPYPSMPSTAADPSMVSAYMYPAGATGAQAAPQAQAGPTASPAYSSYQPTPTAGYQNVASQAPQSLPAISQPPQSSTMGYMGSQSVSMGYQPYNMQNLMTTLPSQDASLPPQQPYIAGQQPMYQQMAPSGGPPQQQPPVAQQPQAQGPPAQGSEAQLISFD

[4] = target: T1, endogenous VPS4B (human (endogenous in HaCaT)); assay: co-IP; as a4, cells harvested 9 h post-infection
[5] = target: HPV-16 L1 GST fusion protein (Human papillomavirus type 16 (HPV-16)) (UniProt P03101); assay: pull-down; purified His-tagged VPS4B proteins added to GST fusion proteins bound to glutathione agarose beads, 2 h at room temperature; washed with PBS containing 1% Triton X-100; western blotting; both purified
[6] = target: HPV-16 L2 GST fusion protein (Human papillomavirus type 16 (HPV-16)) (UniProt P03107); assay: as above
[7] = target: HPV-16 L1 GST fusion protein (Human papillomavirus type 16 (HPV-16)) (UniProt P03101); assay: pull-down; as a1 with VPS4B-DsRed extract, beads washed with increasing concentrations of Triton X-100 (up to 2%) in PBS; western blotting with anti-VPS4B; only the target purified
[8] = target: HPV-16 L1 GST fusion protein (Human papillomavirus type 16 (HPV-16)) (UniProt P03101); assay: pull-down; purified His-tagged VPS4B proteins added to GST fusion proteins bound to glutathione agarose beads, 2 h at room temperature; washed with PBS containing 1% Triton X-100; western blotting; both purified; remark: listed apart in the source

GFP tagged HRS (from UniProt O14964 1-777)
binding [1]: no binding
binding [2]: no binding

HPV-16 L1 of HPV-16 pseudovirions (from UniProt P03101 1-505)
binding [3]: binds
binding [4]: no binding (condition: at 9 h post-infection)

mutant His-VPS4B 95-444 E235Q (from UniProt O75351 95-444) (domain or fragment)
binding [5]: no binding
binding [6]: no binding

B1: GFP tagged VPS4A (protein, UniProt Q9UN37 1-437)
chain: MTTSTLQKAIDLVTKATEEDKAKNYEEALRLYQHAVEYFLHAIKYEAHSDKAKESIRAKCVQYLDRAEKLKDYLRSKEKHGKKPVKENQSEGKGSDSDSEGDNPEKKKLQEQLMGAVVMEKPNIRWNDVAGLEGAKEALKEAVILPIKFPHLFTGKRTPWRGILLFGPPGTGKSYLAKAVATEANNSTFFSVSSSDLMSKWLGESEKLVKNLFELARQHKPSIIFIDEVDSLCGSRNENESEAARRIKTEFLVQMQGVGNNNDGTLVLGATNIPWVLDSAIRRRFEKRIYIPLPEEAARAQMFRLHLGSTPHNLTDANIHELARKTEGYSGADISIIVRDSLMQPVRKVQSATHFKKVCGPSRTNPSMMIDDLLTPCSPGDPGAMEMTWMDVPGDKLLEPVVCMSDMLRSLATTRPTVNADDLLKVKKFSEDFGQES
binding [1]: binds
binding [2]: binds

B2: DsRed tagged VPS4B (protein, UniProt O75351 1-444)
chain: T1 sequence
binding [7]: binds
binding [1]: binds

B3: His-tagged wild type VPS4B (protein, UniProt O75351 1-444)
chain: T1 sequence
binding [8]: binds weakly
